Results from the RNAGym collection of RNA variant scans (doi:10.1073/pnas.2313332121).
This sample is rich in variants without activity.

B1: TPR 5TU (parent)
chain: GGAUCUUCUCGAUCUAACAAAAAAGACAAAUCUGCCACAAAGCUUGAGAGCAUCUUCGGAUGCAGAGGCGGCAGCCUUCGGUGGCGCGAUAGCGCCAACGUUCUCAACUAUGACACGCAAAACGCGUGCUCCGUUGAAUGGAGUUUAUCAUG

Variants of: B1
Assay: polymerase ribozyme fitness, log enrichment relative to wild type (log ratio); higher = more active; in vitro selection for triplet polymerase activity
How it was run: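 Libraries of mutants in each subunit of a heterodimeric triplet polymerase ribozyme were generated by PCR and transcribed. In triplicate, each went through one in vitro selection round: annealing with biotinylated primer, partner subunit and triplets; frozen incubation at −7 °C; gel excision of extended constructs; streptavidin-bead capture; RT-PCR. Fitness, taken from Illumina sequencing of input and output libraries, is the logarithm of a genotype's enrichment over wild-type enrichment, averaged across replicates with inverse-variance weights. The logarithm is base 2, and genotypes needed ≥10 input reads and ≥1 read per output to be kept.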

Variant	polymerase ribozyme fitness (log ratio)
A17U G50C C93G	≤ -4.2
A17G C132G	-3.28
A17U G42U U44A U45C G84U G141A	≤ -4.2
C18G A23C U44A C87A C99U C116U	≤ -4.2
C18U A24G U53G C85U G126A G128U U146A	≤ -4.2
C18G A29C C43A C76A C118A	≤ -4.2
A17U A41U A49C U61A U102G A107G C114G G141C	≤ -4.2
C18G C79G G81C U90G G141A	≤ -4.2
A17G U45G C54U G94A C96G C108U A122U G141A	≤ -4.2
C18G C27U G34A G42U A60G U104C A121U U145G	≤ -4.2
A17G C32G A52G A98G G100C C116A G133U	≤ -4.2
C18G G25U A52C C87A	≤ -4.2
A17U A26U C27U C36G G141C	≤ -4.2
C18G A29U C57G G94C A113C A138G	≤ -4.2
A17G A91U	≤ -4.2
C18G U31G A52G G80C U101C U127G	≤ -4.2
C18U A26U U44C A49U G50C C75G C93U C103A A147U	≤ -4.2
C18U A24U C27G U31C C36G	≤ -4.2
A17U G59A G81U G83U C93U U127A G128A A147G	≤ -4.2
C18U A20U C36U C54U G62A G84A C85U U144C	≤ -4.2
C18G A24U A39C C63U G68A U78A U111C G140C	≤ -4.2
C18A C36A A37U G94C C105G G128U U135C G152A	≤ -4.2
C18G G86A C87A A91C A120C	≤ -4.2
C18U A28G C51G G70C A91C	≤ -4.2

Variant	polymerase ribozyme fitness (log ratio)
C18A A60C G84U A89U G117C C125U U151A	≤ -4.2
C18G C38U C51U U109C C132A	≤ -4.2
C18A C32G U53A C93A A121G U148G	≤ -4.2
C18U A20C G34U C76A C79A G88A	≤ -4.2
A17G U33C C75G C85G	≤ -4.2
A17G C32A G133C	≤ -4.2
C18U A21G A22C A29G G46A A60G U111G G136A G141U	≤ -4.2
A17U U55A A60C G80U	≤ -4.2
C18G C96G C99G C105A	≤ -4.2
A17U A23G C36U G68C A89C	≤ -4.2
A17U A19U U56C C57U C93U A113C C118A	≤ -4.2
C18G A21G A24U A41C U53G C54G G84U G92U C93G A120G	≤ -4.2
A17U U56A U78G U102G U130A U151A	≤ -4.2
C18G A19C U31G A40U G71U C85U U90G G100A A150U	≤ -4.2
A17U G46U G84A C105U	-0.266
C18U A23U C36A C87A U139C	≤ -4.2
A17G C38G C43G U61G C95U G128A	≤ -4.2
A17G G58C U82G G88A G117A A119G C149U	≤ -4.2
A17G U45A G50A G62U C79G G86U C103A	≤ -4.2
A17U C35U C51U C103G	≤ -4.2
A17G C27G G34A G88U C96A U101G U102G U146A A150G	≤ -4.2
C18A A89G U90G A97G	≤ -4.2
C18U A28U C38A A47C C85A U145C	≤ -4.2
C18G U31A A41C U82A U144A U151A	≤ -4.2

Variant	polymerase ribozyme fitness (log ratio)
A17G C32G C76U	≤ -4.2
A17U A40G C54U G83A A91C G126C	≤ -4.2
A17G C35A G88A A122G	≤ -4.2
C18U A23G A137C	≤ -4.2
C18G A37U U56A C118A U127G U146C	≤ -4.2
A17U G50A A73G U77G A120G	≤ -4.2
C18G A41U A60U G83C C95U	≤ -4.2
C18U A19C U53G C93G	≤ -4.2
A17U C54A A89C C99A G136A	-4.03
A17G U44G C85U G141C	≤ -4.2
A17U C54U A89C C95A A107U C108U	≤ -4.2
A17U C96A	-0.735
A17U A52U A142C	-3.3
A17G C38U G81A C96A	0.341
A17U C35A C54U U56C G88U A122C	≤ -4.2
C18G C27U A37C A106U	≤ -4.2
A17U A19C A26C U33G A52U A110C U135G G141C	≤ -4.2
A17U A21U U55A A91C C95G A98U C108G	≤ -4.2
A17U A29C A41G G59C C85G	≤ -4.2
C18G A26G A28U A30U A40C G59U G70U G140C	≤ -4.2
C18G G25U A41C G94U C99U C125A	≤ -4.2
A17U A37U G59C G81A A97G C116G	-1.87
C18G U45A G50C U53G C57U G86U A97G A110U	≤ -4.2
A17U A40U G59C A73G C76A A91G C114A G124A A150U	≤ -4.2

Variant	polymerase ribozyme fitness (log ratio)
A17U G48C C75A G80A G81C A91G	≤ -4.2
A17U A24U C27A C57U G80U G94C A110U G126A G133C	≤ -4.2
A17U C32A G34U C35U A39C A49G A60G G88A C93U C95G A120G A147C	≤ -4.2
A17U C57A C79G C85A C125G G143A	≤ -4.2
A17U A21G C27G A28U C85A C87U C95G	≤ -4.2
C18G A21G G88U G126C	≤ -4.2
A17G A60G C87A U109A C132G	≤ -4.2
C18G A26U C75A C87G C105G A120U	≤ -4.2
C18G C57U G71A G84A A107C A122G G141C	≤ -4.2
A17U G25C U44A C87G G94A G140A	≤ -4.2
A17U A30G C99A	≤ -4.2
C18G A26G C93G	≤ -4.2
A17G G83U G124U G143A U148G	≤ -4.2
A17G U31A U90C C93U C99G C125A A137C G143C	≤ -4.2
C18G C38U A107C	≤ -4.2
A17U C51U C57U C85G C93U A107G C129A	≤ -4.2
A17U C54U C75G A97C C99U U104G A142C U151G	≤ -4.2
A17U G58C A66C U77A	≤ -4.2
A17U A29C U44A G94C	≤ -4.2
C18U A22C A49G U61A C131A G141U A150C	≤ -4.2
A17U A21U C27U G42C C95A U101G U102A	≤ -4.2
A17U A30U U55C C116U	-4.01
A17U G68A G92U U146G	≤ -4.2
A17U U45A C57G G62A G88A G126U	≤ -4.2

Variant	polymerase ribozyme fitness (log ratio)
A17U G50U C57A C93G C131G	≤ -4.2
A17U A52C C79A C93G A97U A106G C116U	≤ -4.2
A17U C105A	-1.28
A17U G25U A47U U56A C96G G140A	≤ -4.2
A17U A28U G46A C54U C57A G136A	≤ -4.2
C18G C96U	-1.12
C18G C57A G74A C93U C105G	≤ -4.2
C18A A52C C85A C93U C96G A121C U146C	≤ -4.2
A17U A26C C38U G83A G124U	-3.97
C18A G94C C108G	≤ -4.2
A17U A29G G58A C87U A89G U130C G152U	≤ -4.2
A17G C38U C57A C63A A115G U144A	-1.28
A17U C96G A142U U146A	-2.11
C18A A29G A37C C85U A91U C93U A122G A150C	≤ -4.2
A17G U55A G88C C95G U148G	≤ -4.2
A17G A64G C93G	≤ -4.2
C18A A21C A37C G81A C87G	≤ -4.2
A17U A30G C79A G83A C116G	≤ -4.2
C18G A52C C54U G68C G81A C87G C93G C99U	≤ -4.2
C18G A28C A49C G50U C79A C85U A107U C118A G152U	≤ -4.2
A17G A52C	-0.98
A17G A41C C51A G81C G92A C96G U144C C149G	≤ -4.2
A17U A19U A37U U53A G58A C95A A121G A122C	-3.75
C18A A39C C43U C76A A89C A91C C99G U144G	≤ -4.2

Variant	polymerase ribozyme fitness (log ratio)
A17G C27A U53A G83C G140C	≤ -4.2
A17G C51U U56A C76G G88A G117U U146A C149U	≤ -4.2
C18G A28G C87U	≤ -4.2
C18G G88U U102A A121C	≤ -4.2
A17U A29U G48A C51U C96A A138G	≤ -4.2
C18G U78G U82G C85U A89U A91U C131A	≤ -4.2
A17U C18U A19U A47U C63U U77C A91U C99G G141C	≤ -4.2
A17U A19C G86A C96A A110U U139G	≤ -4.2
A17G G50U C95U G124C G141A	-0.476
A17G U56G G81U A91U C96A A150G	≤ -4.2
C18G A19U G50A C51U G67A G92C C129U G141A	≤ -4.2
A17G C18G A19U G42C C87G A110G	≤ -4.2
A17U A47G C57U G74C U77C U82A G83A U102G A150G	≤ -4.2
C18G G48A C75U C85G A113C	≤ -4.2
A17U A91U C103G C108U G124A A137C	≤ -4.2
A17U A30U G68U C123U U146A	≤ -4.2
A17U C43A C93A	≤ -4.2
A17G G50C G88C	≤ -4.2
C18G C57G G80U C87A U127C G128C	≤ -4.2
A17U A22U G84U C95U A97U U102C C125A	≤ -4.2
C18G G84U G117U A121G	-2.06
A17G A49C U61A U82C A107U U145C	≤ -4.2
A17G C125A	0.215
A17G C18A A22C C75G G88U	≤ -4.2

Variant	polymerase ribozyme fitness (log ratio)
A17G C18G G68C A91U G92U G124U	≤ -4.2
C18G C36A C95A C96A	≤ -4.2
A17U U61C C79A G92A A97U A147U	≤ -4.2
A17U A23U C36G C57A G70U U78C C85U C103G A147C C149U	≤ -4.2
C18G C32G A41C C43U U44A G86A C93G U104A	≤ -4.2
C18U A24U C27A G59A U90A C123A U127A A150G	≤ -4.2
A17U A37C C93G C96A	≤ -4.2
A17U A47G U77A G88A A89U	≤ -4.2
A17U A113U	-1.99
A17U C27U G50C U53A G71A C95A	≤ -4.2
A17U A29U G74C G124U	≤ -4.2
C18G A19U A22U A91G C123G G133C	≤ -4.2
A17U A19G A97U C129G U135C	≤ -4.2
C18A C75A C85G C132G A138G U148G	≤ -4.2
A17U C27U A41U G58A C79G C87G A97U C99A	≤ -4.2
C18G C32G U44G G58C C76A C93A G141C	≤ -4.2
C18G G59U G84U	-2.51
A17U C36A G84A A142C G143C	≤ -4.2
C18G U78G A107C U109A	≤ -4.2
C18G A28G C85G A91G G92A A119C	≤ -4.2
C18A A20C G42A C57U C95U C132U A147U	≤ -4.2
C18G A37U G65A C96G C108A A150U	≤ -4.2
A17U G94C C105A G141C	≤ -4.2
